Measurements as given in article PMC4336329 (PLoS ONE, 2015).
Hit rate of the full screen: of about 310,000 compounds, about 14,000 (4.5%) showed an effect of 50% or more. Effects have a minus sign here. The list shows a part of the results.

Target: human ether-à-go-go-related gene (hERG) potassium channel (human, UniProt Q12809)
Assay: primary screen, population patch clamp on CHO cells stably expressing hERG
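Note: peak tail current of the secondary pulse compared with the same well before compound.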

human ether-à-go-go-related gene (hERG) potassium channel, sequence (Q12809 whole entry, looked up): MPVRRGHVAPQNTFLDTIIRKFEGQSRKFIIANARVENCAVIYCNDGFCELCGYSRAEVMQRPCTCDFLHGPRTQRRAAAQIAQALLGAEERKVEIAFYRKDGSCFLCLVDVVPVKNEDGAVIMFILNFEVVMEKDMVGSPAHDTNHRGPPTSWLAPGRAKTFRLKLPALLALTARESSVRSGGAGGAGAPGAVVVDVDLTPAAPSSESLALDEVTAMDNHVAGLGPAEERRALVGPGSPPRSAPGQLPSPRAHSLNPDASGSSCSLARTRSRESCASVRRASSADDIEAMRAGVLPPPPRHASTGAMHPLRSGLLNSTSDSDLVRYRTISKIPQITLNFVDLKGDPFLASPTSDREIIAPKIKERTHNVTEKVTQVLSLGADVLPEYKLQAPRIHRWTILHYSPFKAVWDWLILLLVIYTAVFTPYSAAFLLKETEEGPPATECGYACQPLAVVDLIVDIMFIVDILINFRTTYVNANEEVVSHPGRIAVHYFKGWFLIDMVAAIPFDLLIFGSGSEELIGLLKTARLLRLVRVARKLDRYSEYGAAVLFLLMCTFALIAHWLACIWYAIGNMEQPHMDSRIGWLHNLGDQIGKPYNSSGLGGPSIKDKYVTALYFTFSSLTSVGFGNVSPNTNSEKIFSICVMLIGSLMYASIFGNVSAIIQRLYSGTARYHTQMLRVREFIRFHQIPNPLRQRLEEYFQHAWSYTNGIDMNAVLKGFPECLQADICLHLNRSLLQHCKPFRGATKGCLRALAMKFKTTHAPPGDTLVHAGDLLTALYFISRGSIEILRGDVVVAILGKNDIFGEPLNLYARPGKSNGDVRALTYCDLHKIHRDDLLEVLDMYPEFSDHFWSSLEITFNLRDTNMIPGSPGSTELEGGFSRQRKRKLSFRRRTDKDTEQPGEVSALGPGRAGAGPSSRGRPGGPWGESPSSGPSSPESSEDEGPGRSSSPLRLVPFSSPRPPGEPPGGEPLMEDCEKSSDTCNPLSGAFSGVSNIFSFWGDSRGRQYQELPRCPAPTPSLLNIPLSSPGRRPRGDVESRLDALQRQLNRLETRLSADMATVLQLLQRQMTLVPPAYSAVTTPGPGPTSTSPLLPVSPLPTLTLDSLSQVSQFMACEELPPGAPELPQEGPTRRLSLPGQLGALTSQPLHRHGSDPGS

| SMILES | hERG current change (%, negative = inhibition) at 10uM [%] |
| --- | --- |
| CC(C)C(=O)Nc1ccc(C(=O)CN2C(=O)NC3(CCOc4ccccc43)C2=O)cc1 (stereo not shown) | -12.3 |
| Cn1c(-c2ccccc2)cnc1SCC(=O)N1CCCCC1 | -3.68 |
| COc1cc(OC)c(C(=O)NNC(=S)NC2CCCCC2)cc1OC | 16.6 |
| CCOC(=O)C1(CCCc2ccccc2)CCN(C(=O)Cc2nonc2C)CC1 | -51.3 |
| O=C(Nc1ccc(F)c(F)c1)C1CCN(S(=O)(=O)c2cccc3nonc23)CC1 | 16.4 |
| Cc1cccc(C)c1NC(=O)CN(C)S(=O)(=O)c1ccc(-c2ccc(=O)[nH]n2)s1 | -51.7 |
| O=C(CSc1nc2ccccc2s1)NC(=O)NCc1ccco1 | 10.4 |
| CC(=O)c1ccc(S(=O)(=O)N2CCN(C(=O)CN3C(=O)NC4(CCCC4)C3=O)CC2)cc1 | 12.3 |
| CCN1C(=O)c2ccccc2S(=O)(=O)c2ccc(C(=O)NCCOC)cc21 | 18.9 |
| COc1cccc(CCC(=O)N(C)C2CCCN(Cc3ccccc3F)C2)c1 (stereo not shown) | -0.453 |
| CCCCOc1ccc(C(=O)NNC(=S)NC(=O)CC)cc1 | 16.7 |
| CN(NC(=O)c1ccccc1)C1=NS(=O)(=O)c2ccccc21 | 23.4 |
| CC(C)(C)n1nnnc1C(c1cccc(C#N)c1)N1CCN2CCCC2C1 (stereo not shown) | 4.48 |
| COc1ccc(-c2nnc3ccc(SCC(=O)N4CCOCC4)nn23)cc1 | -14 |
| COCC(=O)N/N=C\c1ccc(OC/C=C/c2ccccc2)c(OC)c1 | -11.2 |
| O=C(CNC(=O)C1CCCCC1)Nc1ccccc1 | 33.1 |
| COc1cccc(C(c2sc3nc(C)nn3c2O)N2CCN(C(=O)c3ccco3)CC2)c1 (stereo not shown) | -27.4 |
| O=C(O)C1CC(=O)N(c2ccc(OCc3ccccc3)cc2)C1 (stereo not shown) | -0.486 |
| COc1ccc(F)cc1S(=O)(=O)NCC1CCCO1 (stereo not shown) | 7.9 |
| Cc1ccc(N/C=C(\[N+](=O)[O-])S(=O)(=O)c2ccccc2)cc1 | 13.7 |
| CCn1c(=O)c(C(=O)NNC(=O)Cc2ccccc2)c(O)c2ccccc21 | 7.94 |
| COc1cccc(C2C(C(C)=O)=C(C)Nc3ncnn32)c1 (stereo not shown) | -31.9 |

| SMILES | hERG current change (%, negative = inhibition) at 10uM [%] |
| --- | --- |
| C[C@H](NC(=O)C1CC(=O)N(c2ccc3c(c2)OCCO3)C1)C(=O)N1CCC(C(=O)O)CC1 (stereo partly shown) | 15 |
| COCC(=O)N1CCCC(CNS(=O)(=O)c2ccc(OC)cc2)C1 (stereo not shown) | 34.6 |
| CCC(CC)c1nnc(NC(=O)c2ccc(N3CCCCC3)c([N+](=O)[O-])c2)s1 | 11 |
| O=C(Nc1ccn(CC(=O)N2CCN(c3ccccn3)CC2)c(=O)n1)OCc1ccccc1 | -10.4 |
| CSc1cc(C)c(OCC(=O)Nc2c(C)nn(C)c2C)c(C)c1 | -19.8 |
| COc1ccc(C)cc1-n1cnnn1 | 16.8 |
| O/N=C/c1ccccc1OCc1ccccc1Cl | 3.82 |
| Cc1ccc(C(=O)Nc2ccc(N3CCN(C(=O)c4cccs4)CC3)cc2)c(Cl)c1 | -5.13 |
| COC(=O)c1c(C)nsc1NC(=O)Oc1ccccc1 | 16.6 |
| O=C(NCc1ccccc1)c1cc2ccccc2oc1=O | 9.92 |
| O=C(NC(=S)NNC(=O)c1ccccc1O)c1cccs1 | 10.5 |
| Cc1cc(C)nc(SCNC(=O)c2ccc(Cl)cc2)n1 | 13.3 |
| CCOc1cc(/C=N/NC(=O)c2cccnc2)cc(Br)c1OCC(N)=O | -22.5 |
| Cc1ccc(CNC(=O)CC2(CC3=NS(=O)(=O)c4ccccc4N3)CCCC2)cc1 | 6.74 |
| CCN(CC)C(=O)Oc1c(Cl)cc(Cl)c2cccnc12 | -7.49 |
| Cn1c(-c2c(N)n(CCc3ccccc3)c3nc4ccccc4nc23)nc2ccccc21 | -3.57 |
| O=C(/C=C\c1ccccc1)Oc1cccc2cccnc12 | 13.7 |
| COc1c(C)cc(S(=O)(=O)N2CCCC2)c(C)c1C | -10.8 |
| Cc1ccc(-c2nnc(-c3ccncc3)n2-c2ccc(C)cc2)cc1 | -13.7 |
| CCc1c(C#N)c(SCCC(=O)Nc2cccc(OC)c2)nc2c1C(=O)CC(C)(C)C2 | 4.07 |
| COc1ccc(Cc2ccc(OC)c(N)c2)cc1N | -52.6 |
| CCOc1cccc(OCCCCn2ccnc2)c1 | -9.04 |

| SMILES | hERG current change (%, negative = inhibition) at 10uM [%] |
| --- | --- |
| CC1(C(=O)NCc2cccnc2)CCC(=O)N1Cc1cccs1 (stereo not shown) | 11.9 |
| O=C(COc1ncnc2ccccc12)NCCCN1CCCC1=O | 4.42 |
| CCN1CCN(CC(O)COC(c2ccccc2)c2ccccc2)CC1 (stereo not shown) | -17.1 |
| CC(C)(C)c1ccc(C(=O)N2CCCC2)s1 | 9.61 |
| Cc1c(C)c2ccc(Oc3ccc([N+](=O)[O-])cc3C(F)(F)F)c(C)c2oc1=O | 5.45 |
| Cc1cccc(NC(=O)CSCC(=O)N(C)CCOc2ccc(Cl)cc2)c1 | 6.99 |
| O=C(Nc1ccc2c(c1)OCO2)Nc1cnccn1 | 4.55 |
| COC(=O)Cc1cc(=O)[nH]c(/N=C(\N)Nc2ccc(C)cc2C)n1 | -0.985 |
| COc1ccc(-c2nc(N)n(S(=O)(=O)c3ccc(C)cc3)n2)cc1 | 39 |
| CC(=O)N1CCc2cc(Br)cc(S(=O)(=O)N3CCC(C(=O)O)CC3)c21 | 13.6 |
| O=C(NC1CCCC1)C1CC(=O)N(CCc2ccccc2)C1 (stereo not shown) | 9.66 |
| Cc1ccc(-n2c(O)c(C=Nc3ccccc3N)c(=O)[nH]c2=O)cc1C | -4.01 |
| COc1ccc(/C=C/C(=O)NCC2COc3ccccc3O2)c(OC)c1 (stereo not shown) | -7.34 |
| Cc1onc(-c2ccccc2)c1C(=O)N/N=C(\N)COc1ccc(Cl)cc1 | -38.2 |
| Cc1ccc(-n2ncc3c2CC(C)(C)CC3NC(=O)c2ccc[n+]([O-])c2)cc1 (stereo not shown) | -1.89 |
| COc1ccc(N(C)S(=O)(=O)c2cccc(C(=O)NC3CCCC3)c2)cc1 | -9.64 |
| COc1cccc(CCNC(=O)c2cccc(NC(=O)C3=C(C)OCCS3)c2)c1 | -24.3 |
| CCC/C(O)=C1\C(=O)CCCC1=NCCc1ccc(OCC)c(OCC)c1 | -16.1 |
| O=C(OCN1C(=O)c2ccccc2C1=O)c1cccc(S(=O)(=O)N2CCOCC2)c1 | -3.06 |
| CC(=O)Nc1cccc(NC(=O)CSc2ncc(-c3ccccc3)[nH]2)c1 | 8.41 |
| Cn1c(SCC(=O)NCCN2C(=O)CSC2=O)nnc1-c1ccccc1 | 9.34 |
| Cc1cc(C)cc(NC(=O)C(=O)NCC2CCCN2S(=O)(=O)c2cccs2)c1 (stereo not shown) | -18.1 |

| SMILES | hERG current change (%, negative = inhibition) at 10uM [%] |
| --- | --- |
| COc1ccc(Cl)cc1N(C(=O)c1ccco1)C(C(=O)NC1CCCC1)c1ccco1 (stereo not shown) | -7.07 |
| O=C(CSc1nnc(Cc2cccs2)n1-c1ccccc1)Nc1ccc2c(c1)OCCO2 | -7.99 |
| O=c1cc(-c2cccc(F)c2)[nH]c2ccccc12 | 4.97 |
| Cc1ccc2nc(-c3cccc(NC(=O)c4ccco4)c3)[nH]c2c1 | -30.7 |
| CC1C(=O)C(C)C(c2cc(Cl)ccc2O)NC1c1cc(Cl)ccc1O (stereo not shown) | 9.52 |
| COc1ccc(S(=O)(=O)Cc2ccc(C(=O)N3CCN(c4ccc(Cl)cc4)CC3)o2)cc1 | -55.5 |
| CCOC(=O)N(Cc1ccccc1)Cc1ccc(C(=O)N[C@@H](Cc2ccccc2)C(=O)O)cc1 | 13.8 |
| O=C(CSc1nnc(-c2cccs2)n1-c1ccccc1)N1CCCC1 | -16.8 |
| O=c1nc2ccccc2c2n1CC(CN1CCN(c3cccc(Cl)c3)CC1)N2 (stereo not shown) | -63.3 |
| CC(=O)/C(=C/N(C)C)Sc1ccc(C)cc1 | 13.3 |
| O=C(Nc1ccc2c(c1)OCCO2)C1CCN(S(=O)(=O)c2cccs2)CC1 | -18.6 |
| O=C(NCc1ccccn1)[C@@H]1C[C@H]1[C@@H](NP(=O)(c1ccccc1)c1ccccc1)c1ccccc1 | -1.3 |
| CC(OC(=O)CCC1CCCCC1)C(=O)Nc1ccc(S(N)(=O)=O)cc1 (stereo not shown) | -6.94 |
| CC(=O)Nc1ccc(C2CC(c3ccc(Cl)cc3)=NN2c2ccccc2)cc1 (stereo not shown) | -25.8 |
| C=CCn1c(SCc2csc(C)n2)nc2sc3c(c2c1=O)CCC(C)C3 (stereo not shown) | 6.82 |
| CC1=C(C)C(=O)N(c2ccc(C(=O)O)cc2)C1=O | 16.4 |
| CCOC(=O)C1=C(C)N=C2SC=C(C)N2C1c1ccc(OC)cc1.Cl (stereo not shown) | -19.8 |
| NC(=O)C1CCN(C(=O)c2cccc(S(=O)(=O)N3CCc4ccccc4C3)c2)CC1 | 0.623 |
| C=CCSc1nnc(CNS(=O)(=O)c2ccc(C)cc2)n1C | 4.7 |
| O=C(c1ccncc1)c1ccc([N+](=O)[O-])cc1 | 5.29 |
| O=c1c(Cl)c(Cl)cnn1Cc1ccccc1Cl | -3.11 |
| CC1(C)NC(=O)N(CC(O)Cn2nnc3ccccc32)C1=O.Cl (stereo not shown) | 3.29 |
